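Assay format: 96-well plates, 48-hour exposure. GI50 is the concentration that inhibits growth by half.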 Calls of active or inactive are those of the source. Rule as the data show it: active = GI50 up to about 1.1 µM and inactive = higher.
System: NCI-H322M
Test: growth of human tumour cells (NCI), 48 h

SMILES	GI50
O=C1c2ccccc2C2=Nc3ccncc3CN12	inactive: > 100 µM
CCN(CC)Cc1cc(Nc2c3ccccc3nc3c4ccccc4n(C)c23)ccc1O	inactive: 11.4 µM
CC(=O)n1c(COS(C)(=O)=O)nc2ccccc21	inactive: > 100 µM
C#CCSc1nc(-c2ccco2)n[nH]1	inactive: > 100 µM
CCCC1c2c(ccc3ccccc23)Oc2ccc3ccccc3c21	inactive: > 100 µM
CCCCC(C)C(OC(=O)CC(CC(=O)O)C(=O)O)C(CC(C)CC(O)CCCCC(O)CC(O)C(C)N)OC(=O)CC(CC(=O)O)C(=O)O (stereo not drawn)	inactive: > 100 µM
COC(=O)C(=O)C(C(=O)C(=O)Nc1ccc([N+](=O)[O-])cc1C#N)c1nc2ccc([N+](=O)[O-])cc2nc1O (stereo not drawn)	inactive: > 100 µM
CC(O)CCC(=O)c1ccoc1 (stereo not drawn)	inactive: 8040 µM
COc1ccc(S(=O)(=O)N/N=C/C(=O)O)cc1	inactive: 942 µM
CCN1CC2=C(NC(=S)NC2c2cc(OC)c(OC)c(OC)c2)/C(=C/c2cc(OC)c(OC)c(OC)c2)C1 (stereo not drawn)	inactive: 27.2 µM
COc1ccc(-c2oc(/C=N/NC(N)=S)c([N+](=O)[O-])c2-c2ccc(OC)c(OC)c2)cc1OC	inactive: 55.7 µM
COC(=O)C1=C(C)NC(=S)NC1c1ccc(N(CCCl)CCCl)cc1Cl (stereo not drawn)	inactive: 34.5 µM
CN(C)/N=N/c1c[nH]nc1C(N)=O	inactive: > 100 µM
O=C(COc1ccccc1Cl)N1N=C(c2ccccc2)CC1(O)c1ccccc1 (stereo not drawn)	inactive: 18.8 µM
O=C1C(/N=N/c2ccc(-c3nc4ccccc4o3)cc2)NC(=S)N1c1ccccc1 (stereo not drawn)	inactive: > 100 µM
NC1=NNC(=O)c2nnc3c(C(=O)O)cnn3c2S1	inactive: > 100 µM
CCCC(=O)N[C@@H](Cc1cc(I)c(O)c(I)c1)C(=O)NCCCNCCCCNCCCNC(=O)[C@@H](N)CCCN=C(N)N	inactive: > 100 µM
Cc1ccc(C2c3c(n(C)c(=O)n(C)c3=O)OC(N(C)C)(N(C)C)C2(F)F)cc1 (stereo not drawn)	inactive: > 100 µM
NC(CCC(=O)NC(CSC(=O)N(O)c1ccccc1)C(=O)NCC(=O)O)C(=O)O (stereo not drawn)	inactive: > 1000 µM
CC(=O)N[C@@H](Cc1ccc(O)cn1)C(=O)NCc1ccc2c(c1)OCO2	inactive: > 100 µM
Cc1c2ccccc2cc2ccc3oc([N+](=O)[O-])cc3c12	inactive: > 100 µM
NC1=NN(c2ccccc2)C(=O)C1C(=O)C(=O)Nc1nccs1 (stereo not drawn)	inactive: > 100 µM
O=C(OCc1ccccc1CN1CCOCC1)c1cccc(Br)c1	inactive: 56.2 µM
Cc1ccc(S(=O)(=O)NC(=O)NC(C(=O)O)C(C)C)cc1 (stereo not drawn)	inactive: > 100 µM

SMILES	GI50
Cc1cc2c(cc1C)C(=O)/C(=C/c1ccccc1C(=O)O)C2	inactive: 55.6 µM
N=C(N)Cn1cnc2ccccc21	inactive: > 100 µM
CC1(C2(C)OC(=O)c3ccccc32)OC(=O)c2ccccc21 (stereo not drawn)	inactive: > 100 µM
Cc1ccc(/C=N/NC2=NCCN2)s1	inactive: > 100 µM
Nc1ccc2c(SCc3ccc([N+](=O)[O-])cc3)c3ccccc3nc2c1	inactive: 26.2 µM
N#C/C(C(=O)Nc1ccccc1)=C(/N)N1CCCC1	inactive: > 100 µM
C/C(=C\CNc1ncnc2c1ncn2CCC#N)CO	inactive: > 100 µM
N#Cc1c(-c2ccccc2)c(/C=N/c2ccc(F)cc2)c(=O)n2c1[nH]c1ccccc12	inactive: 9.64 µM
O=c1nc(N2CCCCC2)sc2[nH]c3ccccc3c12	inactive: > 100 µM
O=C(O)CN1CCN2CCOCCN(CC1)CCN(CC(=O)O)CC2	inactive: > 100 µM
N#CCN1c2ccccc2CCC1Cl (stereo not drawn)	inactive: > 10 µM
O=NN1C(c2ccccc2)CC(=NO)CC1c1ccccc1 (stereo not drawn)	inactive: > 100 µM
CO[C@]12C[C@H](CNC(=O)c3cc(Br)c(Br)[nH]3)O[C@H]1NC(=O)N2	inactive: > 100 µM
N#C/C(C(=O)Nc1ccc(Cl)cc1)=C(/N)N1CCCC1	inactive: > 100 µM
CCN(CC)CCCNc1nccc2c(C)c3c(cc12)c1cnccc1n3C	active: 0.069 µM
CCOC(=O)C1C2CCC1CC(=NNc1ccc([N+](=O)[O-])cc1[N+](=O)[O-])C2 (stereo not drawn)	inactive: > 50 µM
N#CC1=C(c2ccccc2)C(O)(c2ccccc2)NC1=O (stereo not drawn)	inactive: > 100 µM
CC(C)(C)c1ccc(O)c(C(c2ccc([N+](=O)[O-])cc2)c2cc(C(C)(C)C)ccc2O)c1	inactive: 3.05 µM
CC1CC(NN)=Nc2ccccc2N1 (stereo not drawn)	inactive: > 100 µM
COc1ccc2[nH]c3c(C)c4cnccc4c(C)c3c2c1	inactive: 3.56 µM
C=CCOc1ccc(C2(c3ccc(OCC=C)cc3)C(=O)Nc3ccccc32)cc1	inactive: > 10 µM
C=CCc1c(Cl)nc(Cl)nc1Cl	active: 0.476 µM
CCCCC(=O)NC1(c2cc3ccccc3s2)CCCCC1	inactive: > 100 µM
NC(=O)N/N=C(\CCC(=O)N(Cc1ccccc1)Cc1ccccc1)CC(=O)c1ccc(F)cc1	inactive: > 100 µM

SMILES	GI50
CC(=O)C1Cn2c(=O)c3cc4ccccc4cc3c(=O)n2C=C1C (stereo not drawn)	inactive: > 100 µM
Cc1ccc(S(=O)(=O)n2c(-c3ccccc3)c(-c3ccccc3)c3ccccc32)cc1	inactive: > 100 µM
Cn1nc(-c2ccccc2)nc1[N+](=O)[O-]	inactive: > 10 µM
COC1(OC)C(N(C)C)=C(Cl)C(=O)/C1=C/C=O	inactive: > 100 µM
C[n+]1c(-c2ccccc2)cc2/c(=C\c3ccc([N+](=O)[O-])cc3)c3ccccc3n21	inactive: 9.35 µM
CCN(CC)c1ccc(/C=C/C2=NN(c3cccc(S(=O)(=O)O)c3)C3(C2)C(Cl)C(=O)N3c2nc3ccccc3s2)cc1 (stereo not drawn)	inactive: 15.7 µM
O=C(NC1CCCCC1)c1c(O)[nH]c(=S)[nH]c1=O	inactive: > 100 µM
CCOC(=O)Cc1ccc(Nc2nc3cc(F)c(F)cc3nc2C(=O)OCC)cc1	inactive: 52.6 µM
NNC1=N/C(=C\c2ccco2)C(=O)N1	inactive: > 100 µM
COC(=O)c1c(O)ccc2c1c1c(n2Cc2ccc(Cl)cc2Cl)C(=O)c2ccccc2C1=O	inactive: 13.6 µM
O=c1n(CC2CO2)c2ccccc2n1CC1CS1 (stereo not drawn)	inactive: > 100 µM
O=c1oc2ccccc2n1P(=O)(Oc1ccc(Cl)cc1)n1c(=O)oc2ccccc21	inactive: > 100 µM
CC(=O)OC1(C#N)CC2OC1C1N=NN(C(=O)OC(C)(C)C)C21 (stereo not drawn)	inactive: > 100 µM
O=[N+]([O-])c1cc(C(F)(F)F)cc([N+](=O)[O-])c1CCl	inactive: 5.51 µM
O=C1C[C@H]2[C@H](c3ccc(Br)cc3)[C@H]3C(=O)c4ccccc4NC(=O)[C@@H]3[C@@]2(O)c2ccccc2N1	inactive: 17 µM
Cc1cc(C)c2[s+]snc2c1	inactive: > 100 µM
CCCCCCCCOC(=O)C12Oc3ccc(-c4ccc5c(c4O)C(=O)C4=C(O)CC(C)C(O)C4(C(=O)OCCCCCCCC)O5)c(O)c3C(=O)C1=C(O)CC(C)C2O (stereo not drawn)	inactive: 56.4 µM
N#Cc1c(-c2ccccc2)c2c([nH]c1=O)-c1cc([N+](=O)[O-])ccc1CCC2	inactive: 35.5 µM
Cc1ccc2nc3c(Cl)cc(=O)cc-3sc2c1	inactive: 31.8 µM
c1ccc(C2=C(c3ccccc3)P(c3ccccc3)C2)cc1 (stereo not drawn)	inactive: > 100 µM
CCCCCCC1CCC2CCCC(C)N12 (stereo not drawn)	inactive: > 100 µM
CCCCCCCCCCCCCCCCNC(=O)/C(O)=C/C(=O)c1ccc(C)cc1	inactive: > 10 µM
N=c1c2ccccc2sc2nc3ccccc3n12	inactive: > 100 µM
NNC(=O)Cc1cccnc1	inactive: > 100 µM

SMILES	GI50
COc1ccc(Nc2nn3c(=O)c4c(C)c(C)sc4nc3s2)cc1	inactive: 31.2 µM
O=C(Nc1ccc(F)cc1)C(=O)C(C1OC(=O)c2ccccc21)[N+](=O)[O-] (stereo not drawn)	inactive: > 100 µM
CCCCc1ccc2[n+](c1)C(C(=O)OCC)=PC2 (stereo not drawn)	inactive: > 100 µM
CC(C)(C)[Si](OC1CCOC1=O)(c1ccccc1)c1ccccc1 (stereo not drawn)	inactive: 38.7 µM
COc1cc2c(cc1OC)C(=O)N(c1ccc(O)cc1)C2=O	inactive: > 100 µM
Cc1ccc(S(=O)(=O)NC(=O)NC(CCC(N)=O)C(=O)O)cc1 (stereo not drawn)	inactive: > 100 µM
Cc1nn(-c2ccccc2)c2c1C(c1ccc(Cl)cc1)NC(=S)N2 (stereo not drawn)	inactive: 28.7 µM
O=C(O)C1=C(C(=O)O)N(c2ccncc2)C(c2ccco2)=CC1c1ccccc1[N+](=O)[O-] (stereo not drawn)	inactive: 16.6 µM
CC(O)CCNC(=O)Nc1c(C(F)(F)F)cc(-c2ccccc2)[nH]c1=O (stereo not drawn)	inactive: > 100 µM
Oc1c(/N=N/c2ccccc2)c2ccccc2c2ccc3ccccc3c12	inactive: > 100 µM
CC(C)(C)c1ccc(-c2nnc(-c3cc(C#N)cc(-c4nnc(-c5ccc(C(C)(C)C)cc5)o4)c3)o2)cc1	inactive: > 100 µM
O=C1O/C(=C/c2ccccc2)C(c2ccccc2)=C1O	inactive: 32.7 µM
COc1cc(N(CCC#N)CCC#N)ccc1/C=C1\SC(=S)NC1=O	inactive: > 100 µM
COc1ccc([C@H](NC(=O)c2ccccc2)[C@@H](O)C(=O)O[C@H]2C[C@@]3(O)C(OC(=O)c4ccccc4)C4[C@](C)(C(=O)[C@H](OC(C)=O)C(=C2C)C3(C)C)[C@@H](O)C[C@H]2OC[C@@]42OC(C)=O)cc1 (stereo partly drawn)	active: 0.0238 µM
COC(=O)[C@]1(c2cc3ccccc3[nH]2)CC2CN(CC(=O)N(C)OC)C1CC2(OC)OC (stereo partly drawn)	inactive: > 100 µM
C[C@H]1C(OCCOC2O[C@@H]3O[C@@]4(C)CC[C@H]5[C@H](C)CCC([C@H]2C)[C@@]35O4)O[C@@H]2O[C@@]3(C)CC[C@H]4[C@H](C)CCC1[C@@]24O3 (stereo partly drawn)	inactive: 54 µM
COc1ccc(/C=C/C(=O)c2ccc(OC(=O)/C=C/c3ccccc3)cc2)cc1	inactive: 24 µM
C[N+](C)(CCNc1ccc(NCC[N+](C)(C)Cc2ccc([N+](=O)[O-])cc2)c2c1C(=O)c1ccccc1C2=O)Cc1ccc([N+](=O)[O-])cc1	inactive: > 100 µM
CC12CC[C@@H](C(C)(C)O)C1[C@@H](O)CC1(C)C2CCC2[C@@]3(C)CC[C@H](O)C(C)(C)C3C(O)C[C@]21C (stereo partly drawn)	inactive: 17.3 µM
NS(=O)(=O)c1ccc(/N=N/c2cnc(O)c(O)c2)cc1	inactive: 45.4 µM
CCN(CCCl)CCCCCNc1c2ccccc2nc2ccc(OC)cc12	active: 0.71 µM

Reference: ChEMBL document CHEMBL1201862, “PubChem BioAssay data set” (2004)
